Test results published in the supplement of paper PMC11417369.
± gives the standard deviation of the averaged measurements. The list shows a part of the results.

The sequences below were run on PfAP2-I AP2 domain 3 (GST-tagged) (assay: gcPBM binding intensity (ln(normalized median fluorescence intensity)); higher = stronger DNA binding).
Outline: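 DNA-binding domains from P. falciparum, fused to GST and produced in E. coli, were put on an Agilent 4 × 180k double-stranded probe array for 1 h in 1× PBS holding 1% milk, 0.2 mg/ml BSA, 0.5% salmon testes DNA and 0.03% Triton X-100. Probes were primer-extended, 36 bp long and drawn from intergenic genomic regions, with negative controls included. After Alexa488 anti-GST antibody detection and a 488 nm scan, binding intensity was set as the highest Masliner-normalised natural-log median intensity across replicate spots of either probe orientation.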

Row | Sequence | gcPBM binding intensity (ln)
1 | TCATTCTAAATATAAACACACATAAATATGTACATT [CACACA_site7555] | 7.68 ± 0.4
2 | TTTTTTTTTTTTAAAAGTACATAGTAGTAATTATAG [XGTACX_site4232] | 7.92 ± 0.42
3 | TATTTTTTTTTTTTTTTTTTTACCTTTCCACTCAAA [CACACA_negctrl_site1454] | 7.58 ± 0.43
4 | TCTAGGAAAAATTATAGTACACAAAAATATATATAT [XGTACX_site4136] | 8.89 ± 0.38
5 | ATATATACATATACTATATCTTTTATTTTTATTATT [GTGCAC_negctrl_site127] | 7.61 ± 0.57
6 | TTATATGCACTTTTTGCACACGTATGAATAACAAAA [CACACA_site1811] | 10.8 ± 0.86
7 | TATGACACTTTGAAGGGTACATGCAGAAAAAAAAAA [XGTACX_site569] | 8.41 ± 0.81
8 | TATATATATTAAAAACGTACAAAATAAGAATTAATT [XGTACX_site5979] | 8.06 ± 0.73
9 | GGATATATTTTATGTACACACACATATAAGGGATTA [CACACA_site4181] | 8.02 ± 0.3
10 | TATAAATAAATAAACACACACAAATAAAATAAAAAA [CACACA_site7623] | 7.88 ± 0.67
11 | TTTTTTTGCCATATTACACACACACCGGTAAACCCC [CACACA_site8475] | 8.48 ± 0.39
12 | ACATATTAGGGTCATGAACACACAAAAAAAAAAAAA [CACACA_site8218] | 7.96 ± 0.57
13 | TTTATTTATTTATTCTTATTTTTTTTTTTTTTTACT [CACACA_negctrl_site257] | 7.42 ± 0.74
14 | AATTCAGCTTTACAACGTACACAATCATATGTCTAT [XGTACX_site8113] | 7.96 ± 0.67
15 | ATGAAGATTTAAAAATGTACATATGATCTATGTCCT [XGTACX_site8409] | 7.43 ± 0.55
16 | TAATACATAAATGATTGTACATAAGAATTGAAACAT [XGTACX_site4583] | 7.84 ± 0.64
17 | ACATACGAAAATTGGAAGGATAGATAAAAAGAAAAT [CACACA_negctrl_site51] | 7.82 ± 0.88
18 | GTACAGATGTAGTATGCATGTAATTATATATAAATT [TGCATGCA_site292] | 8.07 ± 0.69
19 | ATATAAAAAAGAGGGAGTACTTGTAACAAAATAATA [XGTACX_site8679] | 8.03 ± 0.54
20 | ACATGTTCATAATTTTGTACATATTTTTATGAACAT [XGTACX_site3976] | 7.94 ± 0.41
21 | ACGTAGTAGGTATTATGTACATATTTATAAGTATAA [XGTACX_site7336] | 7.84 ± 0.49
22 | TAACTACTAGAAAAAACACACAAAAAGTAAATATAT [CACACA_site2740] | 7.79 ± 0.74
23 | TTCCCATGTAATATTAAACACACACCCATATAACAC [CACACA_site7905] | 8.96 ± 0.11
24 | ATTCTAATTACATATACACACAAAGGTTCATAACAA [CACACA_site3076] | 7.88 ± 0.54
